Measurements taken from the BET-seq Pho4 binding data (Le et al. 2018).
The other results are listed elsewhere or left out. The energies were worked out here from pooled read counts, against the library average; single values are noisy.

molecular target: T1, Pho4 (S. cerevisiae) (UniProt P07270); assay: relative binding free energy (BET-seq); higher = weaker binding; conditions: reference: library average
T1 sequence: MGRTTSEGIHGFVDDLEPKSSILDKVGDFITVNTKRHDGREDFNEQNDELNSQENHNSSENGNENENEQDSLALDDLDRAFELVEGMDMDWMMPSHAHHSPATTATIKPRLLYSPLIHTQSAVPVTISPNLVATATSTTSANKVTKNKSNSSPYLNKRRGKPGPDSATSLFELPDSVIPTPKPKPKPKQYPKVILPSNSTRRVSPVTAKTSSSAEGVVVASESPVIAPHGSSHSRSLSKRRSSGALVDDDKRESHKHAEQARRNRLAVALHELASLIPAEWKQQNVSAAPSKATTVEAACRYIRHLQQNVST

| Sequence | relative binding free energy |
| --- | --- |
| GGGCGCACGTGCGGGC | -0.21 kcal/mol |
| GGAAGCACGTGGAAGT | 0.05 kcal/mol |
| CAAGACACGTGTGGTT | 0.18 kcal/mol |
| TGGGTCACGTGTAGTC | 0.17 kcal/mol |
| GGTTGCACGTGAATGA | 0.29 kcal/mol |
| GGAAACACGTGTTATT | 0.04 kcal/mol |
| CATGTCACGTGGGTGA | -0.02 kcal/mol |
| GCTTGCACGTGATCGT | 0.27 kcal/mol |
| GGGACCACGTGTTTAT | 0.11 kcal/mol |
| GGGGACACGTGGTTCG | -0.12 kcal/mol |
| GTTTTCACGTGGAATT | 0.4 kcal/mol |
| GTCTGCACGTGGCTGA | 0.05 kcal/mol |
| TGGGACACGTGCACGG | -0.15 kcal/mol |
| GGAGCCACGTGGGCGT | -0.23 kcal/mol |
| TCGAGCACGTGGTCGG | -0.15 kcal/mol |
| TTTCTCACGTGAAGAG | 0.44 kcal/mol |
| TTTTACACGTGTGCAG | 0.13 kcal/mol |
| TCTGCCACGTGTGTGG | -0.03 kcal/mol |
| TGGGACACGTGGGTCT | -0.1 kcal/mol |
| GTTAGCACGTGGTTCT | -0.1 kcal/mol |
| AAACTCACGTGTGGGG | 0.28 kcal/mol |
| TTGGGCACGTGTAATT | 0.08 kcal/mol |
| CATGTCACGTGTTGGT | 0.12 kcal/mol |
| ATGGGCACGTGTGTGT | -0.03 kcal/mol |
| AAGGTCACGTGATACT | 0.28 kcal/mol |

| Sequence | relative binding free energy |
| --- | --- |
| CGTGTCACGTGAATAT | 0.36 kcal/mol |
| TGCATCACGTGGGGAA | 0.03 kcal/mol |
| ACTGTCACGTGTGTGA | 0.07 kcal/mol |
| AGTGTCACGTGGGCAG | -0.14 kcal/mol |
| TGTGGCACGTGGCTTG | -0.05 kcal/mol |
| GGGAACACGTGGAGGA | -0.08 kcal/mol |
| GGCGACACGTGTGTTG | 0.11 kcal/mol |
| TGGCTCACGTGTGTGA | 0.2 kcal/mol |
| TTGTGCACGTGTCGCG | 0.03 kcal/mol |
| CGTTTCACGTGCGGGT | 0.23 kcal/mol |
| GCTGTCACGTGTGCTG | 0.14 kcal/mol |
| TCGTGCACGTGTAAGG | 0.02 kcal/mol |
| ATATGCACGTGTCATG | -0.06 kcal/mol |
| GGTCGCACGTGTGGAG | 0.14 kcal/mol |
| GGTTACACGTGGTAAT | 0.21 kcal/mol |
| TGTAACACGTGTTCAT | 0.01 kcal/mol |
| TTATTCACGTGATGAT | 0.17 kcal/mol |
| GCATGCACGTGGTTTG | -0.08 kcal/mol |
| GTCTTCACGTGGGGCT | 0.17 kcal/mol |
| TATTGCACGTGGTAAC | 0.05 kcal/mol |
| TAGTTCACGTGTCTAT | 0.1 kcal/mol |
| GGTGACACGTGTTTTG | 0.01 kcal/mol |
| AATGGCACGTGGATTC | 0.05 kcal/mol |
| GGTTGCACGTGTATTG | 0.19 kcal/mol |
| CGTGGCACGTGTTCGG | -0.11 kcal/mol |

| Sequence | relative binding free energy |
| --- | --- |
| GGCATCACGTGGTGTG | 0.07 kcal/mol |
| AGCGACACGTGAGTTT | 0.28 kcal/mol |
| GGTTGCACGTGAGAGT | 0.31 kcal/mol |
| TTTCACACGTGAGAAT | 0.43 kcal/mol |
| TAATTCACGTGTTATA | 0.16 kcal/mol |
| AGGGGCACGTGGGCCT | -0.37 kcal/mol |
| TTGAACACGTGAAGGG | 0.37 kcal/mol |
| ATTAGCACGTGGTAGA | -0.21 kcal/mol |
| GGATGCACGTGTTAAA | 0 kcal/mol |
| TCGGACACGTGTGTTG | 0.13 kcal/mol |
| TTGGACACGTGGTGGA | -0.06 kcal/mol |
| TTGCACACGTGTTTGG | 0.13 kcal/mol |
| ATATCCACGTGGGATT | -0.02 kcal/mol |
| GTAGTCACGTGTTCAT | 0.13 kcal/mol |
| TTGGGCACGTGGTCAG | -0.22 kcal/mol |
| TCATGCACGTGTGATA | 0.07 kcal/mol |
| CGTTTCACGTGACATG | 0.48 kcal/mol |
| AGCGTCACGTGGTTAA | 0.08 kcal/mol |
| ACTGGCACGTGGATGG | -0.09 kcal/mol |
| ATTTACACGTGGGCAT | 0.12 kcal/mol |
| TATTTCACGTGAAGAT | 0.25 kcal/mol |
| ATCGTCACGTGTGGGA | 0.27 kcal/mol |
| TGTTACACGTGATAAT | 0.24 kcal/mol |
| TGAAGCACGTGTTGCG | -0.22 kcal/mol |
| GGGTACACGTGGTGAT | 0.03 kcal/mol |

| Sequence | relative binding free energy |
| --- | --- |
| ACAAGCACGTGGGTTG | -0.22 kcal/mol |
| ACGATCACGTGATAGT | 0.37 kcal/mol |
| AGGTTCACGTGGTGCT | 0.08 kcal/mol |
| CTTGGCACGTGGCTGG | -0.13 kcal/mol |
| GCTGTCACGTGGGTAT | -0.15 kcal/mol |
| CGAGTCACGTGGTGGT | 0.08 kcal/mol |
| AAGGCCACGTGGAGTG | -0.06 kcal/mol |
| GAGTGCACGTGACTTG | 0.21 kcal/mol |
| TTAATCACGTGGTTGT | 0.14 kcal/mol |
| TATGACACGTGTTGCG | -0.05 kcal/mol |
| GAGTGCACGTGGGGTC | -0.06 kcal/mol |
| TTGTGCACGTGGATGA | 0.07 kcal/mol |
| AGAGTCACGTGGACGG | 0.18 kcal/mol |
| CTGTGCACGTGTACGT | -0.04 kcal/mol |
| AACGACACGTGGGTGT | -0.17 kcal/mol |
| CTGATCACGTGATTTG | 0.2 kcal/mol |
| TATGTCACGTGGTCGT | -0.09 kcal/mol |
| GTATTCACGTGTGGCT | 0.4 kcal/mol |
| GTGGTCACGTGGATCT | 0.26 kcal/mol |
| CGTGACACGTGCGTGG | -0.06 kcal/mol |
| TCTTGCACGTGGTGGT | 0.04 kcal/mol |
| TAATGCACGTGGCCGG | -0.1 kcal/mol |
| TAGCGCACGTGGTCGG | -0.15 kcal/mol |
| ATTGGCACGTGGCGAT | -0.17 kcal/mol |
| GGTGACACGTGTATTG | 0.02 kcal/mol |

| Sequence | relative binding free energy |
| --- | --- |
| ATCGGCACGTGAGGGG | 0.15 kcal/mol |
| GGGTGCACGTGGTTCT | -0.01 kcal/mol |
| TTTGACACGTGAGTTG | 0.23 kcal/mol |
| CATGGCACGTGGGCTG | -0.38 kcal/mol |
| TCGAACACGTGTTGGG | 0.03 kcal/mol |
| ATTTACACGTGGCAGG | 0.17 kcal/mol |
| TGGGGCACGTGGGCCT | -0.14 kcal/mol |
| ATCTGCACGTGGCGTG | -0.08 kcal/mol |
| ATTTCCACGTGTAATT | 0.16 kcal/mol |
| GGCCGCACGTGGGTTT | -0.09 kcal/mol |
| AAGATCACGTGGGTAT | -0.01 kcal/mol |
| GACGGCACGTGTGAGT | 0.18 kcal/mol |
| TATGGCACGTGTTGGC | 0 kcal/mol |
| GGTGTCACGTGTTCGA | 0.19 kcal/mol |
| GTGTACACGTGTGATC | 0.13 kcal/mol |
| AGAAGCACGTGCTTGT | -0.08 kcal/mol |
| TGTCTCACGTGACGGT | 0.29 kcal/mol |
| CTAGGCACGTGTGGGA | -0.17 kcal/mol |
| TGTGACACGTGACGTG | 0.28 kcal/mol |
| CGGGGCACGTGGTTAC | -0.16 kcal/mol |
| TGTTTCACGTGACGTT | 0.34 kcal/mol |
| GTTATCACGTGTTAGC | 0.16 kcal/mol |
| TTGGTCACGTGCGGGT | 0.2 kcal/mol |
| CAGGTCACGTGGTATG | 0.14 kcal/mol |
| TTGGGCACGTGGTACA | -0.3 kcal/mol |

| Sequence | relative binding free energy |
| --- | --- |
| AACTTCACGTGGGGTT | 0.06 kcal/mol |
| GTTTGCACGTGCCGGA | 0.07 kcal/mol |
| TTTACCACGTGATTTT | -0.02 kcal/mol |
| GGAAGCACGTGGGAGG | -0.23 kcal/mol |
| GGGCGCACGTGGGTCT | -0.26 kcal/mol |
| CTGGTCACGTGGGAGC | 0.1 kcal/mol |
| TTAAGCACGTGATTAT | -0.04 kcal/mol |
| GCTATCACGTGGTTGA | 0.26 kcal/mol |
| GTGTTCACGTGTAGCT | 0.3 kcal/mol |
| CGCTGCACGTGGGTGG | -0.14 kcal/mol |
| TTACGCACGTGTGCGG | -0.09 kcal/mol |
| TATGACACGTGTGCTT | -0.04 kcal/mol |
| TTGAACACGTGGTATT | 0.02 kcal/mol |
| TGGCACACGTGAGGTG | 0.39 kcal/mol |
| TTGTCCACGTGAGATT | 0.26 kcal/mol |
| TAGCTCACGTGTTTTA | 0.13 kcal/mol |
| TCATGCACGTGTGCGG | -0.08 kcal/mol |
| AATTGCACGTGGGCAG | -0.21 kcal/mol |
| TCGTGCACGTGGCTTT | -0.05 kcal/mol |
| TTTGTCACGTGACATG | 0.2 kcal/mol |
| GGACTCACGTGGGGCG | 0.1 kcal/mol |
